In paper PMC6919601, “Identification of Plasmodium dipeptidyl aminopeptidase allosteric inhibitors by high throughput screening” (PLoS ONE, 2019):
The campaign covered roughly 110,000 compounds. About 230 (0.21%) showed an effect of 50% or more. The list shows a part of the results.

biological target: DPAP1 (Plasmodium falciparum, UniProt Q8IIJ9); test: primary screen, percent inhibition; read by cleavage of a fluorogenic dipeptide substrate; higher = more effect of the substance; parameters: species or system P. falciparum D10 trophozoite lysates; single well
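Also: 30 min substrate incubation versus DMSO and 10 µM JCP410 controls.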

DPAP1, sequence (Q8IIJ9 whole entry, looked up): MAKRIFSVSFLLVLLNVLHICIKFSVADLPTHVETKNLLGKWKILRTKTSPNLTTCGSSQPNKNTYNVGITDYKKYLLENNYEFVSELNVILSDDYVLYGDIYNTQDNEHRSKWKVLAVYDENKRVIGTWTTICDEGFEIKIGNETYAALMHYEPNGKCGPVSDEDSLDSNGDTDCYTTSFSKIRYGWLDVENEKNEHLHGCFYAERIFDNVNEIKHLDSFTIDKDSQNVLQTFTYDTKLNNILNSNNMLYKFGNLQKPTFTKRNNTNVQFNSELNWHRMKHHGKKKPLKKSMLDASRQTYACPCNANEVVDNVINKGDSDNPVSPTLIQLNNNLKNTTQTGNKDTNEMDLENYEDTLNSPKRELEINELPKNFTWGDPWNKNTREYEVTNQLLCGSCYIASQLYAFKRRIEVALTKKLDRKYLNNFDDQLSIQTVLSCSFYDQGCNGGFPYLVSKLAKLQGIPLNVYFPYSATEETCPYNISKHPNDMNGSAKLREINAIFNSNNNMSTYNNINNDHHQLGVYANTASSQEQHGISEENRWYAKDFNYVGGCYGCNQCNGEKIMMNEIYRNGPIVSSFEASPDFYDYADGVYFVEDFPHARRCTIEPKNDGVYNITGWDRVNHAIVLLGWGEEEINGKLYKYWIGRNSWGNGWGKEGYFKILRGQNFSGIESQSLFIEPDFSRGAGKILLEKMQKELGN

Structure (SMILES)	% Inhibition @ 10 uM [%]
Clc1cccc(OCCCN2CCCCC2)c1	3.95
CC(C)NC(C)C(=O)c1ccc2ccccc2c1 (stereo not drawn)	-1.78
CCCCN(C(=O)c1ccc(F)cc1)C1=CC2CCC(C1)N2C (stereo not drawn)	-3.64
COc1ccc(-n2nnc(-c3nsc(NC(=O)c4ccc(C)cc4)n3)c2C)cc1OC	-0.48
C=CCNc1nc(Nc2ccc(F)cc2)nc(OC(C(F)(F)F)C(F)(F)F)n1	13.5
NC(=O)C1CCN(C(=O)c2ccc3c(c2)sc2nc(-c4ccc(F)cc4)cn23)CC1	31.5
CCCc1nnc(NC(=O)Cc2coc3cc(C)ccc23)s1	1
Cc1[nH]c2ccccc2c1CN1CCC(Cc2ccccc2)CC1	-1.77
CCOc1ccc(C(=O)NCCc2csc3nc(-c4ccc(C)cc4)nn23)cc1OCC	1.43
O=C(COc1cccc(NC(=O)c2cccs2)c1)c1ccc(F)cc1	-4.66
COc1ccc(C(=N)NOC(=O)CC(c2ccccc2)c2ccccc2)cc1OC	-2.98
Cc1ccc(-c2nnc(SCC(=O)N3CCC(C)CC3)o2)cc1C	1.3
O=C1c2ccccc2C2(O)Nc3nc(O)nc(O)c3C12O (stereo not drawn)	0.0265
COc1ccc2nc(NC(=O)C3CCN(S(=O)(=O)c4cccnc4)CC3)sc2c1	-7.85
CCOC(=O)c1cnn(-c2ccccc2)c1NC(=O)CSc1nnc2c3ccccc3n(C)c2n1	-2.39
CC(C)CC(=O)Nc1ccc(-c2nc3cc(Cl)ccc3o2)cc1	-1.57
Cc1ccc(C(=O)CC(C(=O)O)c2cn(C)c3ccccc23)cc1 (stereo not drawn)	2.22
Nc1ccccc1CC(c1c[nH]c2ccccc12)c1c[nH]c2ccccc12	-4.58
COc1cc(OC)c(NS(=O)(=O)c2ccc3ccccc3c2)cc1Cl	-5.29
CN1C(=O)C(=C(N)NC(=O)c2ccccc2)C(=O)N(C)C1=O	1.01
CCC(=O)/N=C(/Nc1ccccc1)Nc1nc(C)cc(C)n1	-1.3

Structure (SMILES)	% Inhibition @ 10 uM [%]
Cn1cc(NC(=O)NCc2ccc(F)cc2)c2ccccc2c1=O	-2.14
Cc1ccccc1C1CC(=O)NC2=C1C(=O)CC(c1cccs1)C2 (stereo not drawn)	0.8
Cc1nc2nc(-c3ccc(Cl)cc3Cl)nn2c(C)c1CCC(=O)NCC1CCCO1 (stereo not drawn)	-2.45
COc1ccc(CCNC(=O)c2cc3c(s2)CSC3)cc1OC	-1.3
CC1(C)CC2=Nc3ccccc3NC(c3cccc(O)c3)C2=C(O)C1 (stereo not drawn)	-2.56
COc1ccc(CN2C(=O)C3C(c4ccccc4)OC4(C(=O)c5ccccc5C4=O)C3C2=O)cc1 (stereo not drawn)	-3.23
Cc1c(CC(=O)N2CCCC2)c(=O)oc2cc3occ(C(C)(C)C)c3cc12	-2.79
CC(C)c1cc(C(C)C)c(S(=O)(=O)N2CCOCC2)c(C(C)C)c1	6.61
Cc1c2cnn(CC(=O)N3CCC(C)CC3)c(=O)c2c(C)n1Cc1ccccc1	-2.17
COc1ccccc1-c1noc(CSc2nc(C)cc(O)n2)n1	3.93
O=C(CCS(=O)(=O)c1cccc2nonc12)Nc1nccs1	1.26
OC1=C2C(=Nc3nc4ccccc4n3C2c2cccs2)CCC1 (stereo not drawn)	-9.03
COC(=O)C1=C(C)OC(N)=C(C#N)C1c1cc(C)cc(Cn2ccc(C(F)(F)F)n2)c1C (stereo not drawn)	0.032
CC1(C)Cc2nc3sc4c(NCCc5ccccc5)ncnc4c3cc2CO1	-1.1
COc1ccc(S(=O)(=O)Nc2c(C)nc3sccn3c2=O)cc1	3.5
Cc1cccc2sc(N(CCCN(C)C)C(=O)CN3C(=O)c4ccccc4C3=O)nc12	-1.07
O=C(NCCCN1CCCC1=O)c1nc(-c2ccc(Cl)cc2)n2c1CCCCC2	-1.96
O=C(O)CSCC(=O)c1c[nH]c2ccccc12	-9.95
Cc1cccc(CCNC(=O)c2cc(O)nc3ccc(Br)cc23)c1	1.62
Cc1ccc(NC(=O)NC2CCCCC2)cc1Cl	-0.414
CC1C(O)CCN(C)C1c1ccccc1 (stereo not drawn)	-0.128

Structure (SMILES)	% Inhibition @ 10 uM [%]
Cc1cccc(OCCCCc2c(C)n[nH]c2C)c1C	-1.64
Cc1cccc(OC(C)c2nc(-c3ccncc3)no2)c1 (stereo not drawn)	-4.75
COc1ccccc1C(=O)NC1(C(F)(F)F)C(=O)N(Cc2ccccc2)C(C)=C1C(C)=O (stereo not drawn)	3.93
COc1ccccc1-n1c(C)c(C(C)=O)c2cc(O)ccc21	-6.88
CC(=O)Nc1ccc2c(c1)C1C=CCC1C(c1ccc(Cl)cc1Cl)N2 (stereo not drawn)	4.57
Cc1ccc(OCC(=O)NCc2nc(-c3ccc(C)cc3)no2)cc1	-1.22
CCN(CC)S(=O)(=O)c1nnc(NC(=O)c2cccc3ccccc23)s1	-7.53
CCOC(=O)C1=C(CNC2CC(C)(C)NC(C)(C)C2)NC(=O)NC1c1ccc2c(c1)OCO2 (stereo not drawn)	2.57
Cc1ccc(Cc2c(C)nc3nc(SCC(=O)NCCN4CCCCC4C)nn3c2C)cc1 (stereo not drawn)	3.49
OC(c1ccccc1)(c1ccccc1)c1c[nH]cn1	-0.582
C=Cc1ccc(Cn2c(C(=O)O)c(CNCC(C)c3ccccc3)c3ccc(C)cc32)cc1 (stereo not drawn)	-0.537
Cn1ncc2c(N3CCN(Cc4ccc5c(c4)OCO5)CC3)ncnc21	4.15
O=C1CNC(=O)N1C12CC3CC(CC(C3)C1)C2	-3.42
O=C1c2ccccc2C(=O)N1CC1c2ccccc2CCN1C(=O)COc1ccc(Cl)cc1Cl (stereo not drawn)	-1.24
CCN(CC)C(=O)C1=CC(c2ccc(OC)cc2)=NS(=O)(=O)N1C	2.32
CC(NC(=O)c1ccc(C2SCC(=O)N2CCc2ccccc2)cc1)c1ccccc1 (stereo not drawn)	0.561
COCC(C)NC(=O)C1CC(c2ccc(F)cc2)=NO1 (stereo not drawn)	-4.17
Cc1cc(C)n(-c2nc3cc(Cl)c(Cl)cc3n3nnnc23)n1	3
Cc1ccc(CSCc2ccc(C(=O)NCCCN3CCOCC3)o2)cc1	-1.21
COc1ccc(CN2CCN(c3ccc([N+](=O)[O-])cc3)CC2)cc1Br	0.708
Cc1cc(C)cc(OCC(=O)NCc2cc(C)nc3ccccc23)c1	2.57
